Measured values taken from publication PMC4336329 (PLoS ONE, 2015).
Hit rate of the full screen: of about 310,000 compounds, about 2,200 (0.71%) showed an effect of 50% or more. Effects have a minus sign here. The list shows a part of the results.

Each compound was assayed against human ether-à-go-go-related gene (hERG) potassium channel (human, UniProt Q12809) (assay: primary screen, population patch clamp on CHO cells stably expressing hERG).
Chain of human ether-à-go-go-related gene (hERG) potassium channel (Q12809 whole entry, looked up): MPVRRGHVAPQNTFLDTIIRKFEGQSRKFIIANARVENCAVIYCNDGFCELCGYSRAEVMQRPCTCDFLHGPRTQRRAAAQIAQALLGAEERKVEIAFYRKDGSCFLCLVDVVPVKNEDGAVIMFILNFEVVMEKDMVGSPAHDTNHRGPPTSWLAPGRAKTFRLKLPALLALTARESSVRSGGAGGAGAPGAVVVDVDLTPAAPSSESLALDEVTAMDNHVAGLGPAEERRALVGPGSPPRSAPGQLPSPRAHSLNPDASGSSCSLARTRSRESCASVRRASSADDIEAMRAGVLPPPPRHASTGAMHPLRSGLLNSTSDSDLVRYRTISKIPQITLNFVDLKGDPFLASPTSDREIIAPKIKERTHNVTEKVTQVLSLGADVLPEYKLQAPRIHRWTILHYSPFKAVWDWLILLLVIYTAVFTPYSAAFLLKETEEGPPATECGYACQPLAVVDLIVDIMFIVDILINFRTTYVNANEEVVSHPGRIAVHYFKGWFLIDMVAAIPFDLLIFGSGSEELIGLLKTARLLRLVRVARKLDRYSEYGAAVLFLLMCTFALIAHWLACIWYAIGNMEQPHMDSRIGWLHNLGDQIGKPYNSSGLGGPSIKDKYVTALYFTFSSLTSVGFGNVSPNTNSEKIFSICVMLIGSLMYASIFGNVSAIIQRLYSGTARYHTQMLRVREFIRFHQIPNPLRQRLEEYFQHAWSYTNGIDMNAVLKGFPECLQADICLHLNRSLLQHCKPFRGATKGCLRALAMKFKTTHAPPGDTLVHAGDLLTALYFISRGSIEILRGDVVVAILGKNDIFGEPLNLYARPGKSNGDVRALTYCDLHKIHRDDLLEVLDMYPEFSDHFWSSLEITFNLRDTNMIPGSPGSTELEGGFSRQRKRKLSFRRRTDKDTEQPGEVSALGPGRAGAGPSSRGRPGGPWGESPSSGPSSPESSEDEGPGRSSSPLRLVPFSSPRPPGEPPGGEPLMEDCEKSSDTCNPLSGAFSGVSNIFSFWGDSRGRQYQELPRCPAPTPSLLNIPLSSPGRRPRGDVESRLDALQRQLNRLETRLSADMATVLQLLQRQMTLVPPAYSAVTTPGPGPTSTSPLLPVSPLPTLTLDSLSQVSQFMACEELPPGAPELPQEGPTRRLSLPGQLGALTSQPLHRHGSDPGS

Row | SMILES | hERG current change (%, negative = inhibition) at 1uM
1 | CCC(C)NC(=O)CN1C(=O)CSc2ccc(S(=O)(=O)N3CCCC3)cc21 (stereo not shown) | 15.8%
2 | COc1ccc(C(=O)C2CCN(CC(=O)Nc3ccc(C)cc3)CC2)cc1 | -22.8%
3 | CCC(C)c1ccc(NC(=O)COC(=O)C2=COCCO2)cc1 (stereo not shown) | 9.09%
4 | O=C(NNC1CC(=O)N(c2ccccc2)C1=O)c1ccccc1Cl (stereo not shown) | 11.1%
5 | COc1ccc(N(CC(=O)NCc2ccccc2)C(=O)CCC(=O)Nc2cc(C)ccn2)c(OC)c1 | -18.4%
6 | O=C(NC1CCCC1)C(c1ccccc1)N(Cc1ccc(F)cc1)C(=O)c1csnn1 (stereo not shown) | 0.348%
7 | CCOC(=O)N1CCN(C(=O)CN(Cc2ccc(Cl)cc2)S(=O)(=O)c2ccccc2)CC1 | -15.1%
8 | O=C(Cc1ccc([N+](=O)[O-])cc1)N/N=C/c1cccs1 | 8.54%
9 | CC(C)(C)n1nc2c(c1NC(=O)c1ccc(Br)cc1)CS(=O)C2 (stereo not shown) | 0.972%
10 | O=C(NCc1nnc(SCC(=O)N2CCOCC2)o1)c1c(F)cccc1Cl | 8.25%
11 | CCCN(Cc1nc(-c2ccc(Cl)cc2)no1)CC1CCCO1 (stereo not shown) | 4.92%
12 | C[C@@H]1NC(=O)[C@H](CCC(N)=O)NC(=O)c2cc([N+](=O)[O-])cc(I)c2NCC[C@@H](C(N)=O)NC1=O | 9.61%
13 | C[C@@H]1NC(=O)[C@H](CCCN=C(N)N)NC(=O)c2cc([N+](=O)[O-])cc(I)c2NCCC[C@@H](C(N)=O)NC1=O | 10.4%
14 | CCOc1ccc(C(=O)N2CCN(CC(=O)N3CCCC3)CC2)cc1OCC | 1.47%
15 | CS(=O)(=O)N(CC(=O)N1CCCCC1)c1cccc(F)c1 | 13.4%
16 | COCCCNc1nc2ccccc2nc1NS(=O)(=O)c1cccc(Cl)c1 | 32.8%
17 | CCC(C)C(NC(=O)OCc1ccccc1)C(=O)OCN1C(=O)c2ccccc2C1=O (stereo not shown) | 7.99%
18 | Cc1ccc(/C=C2/NC(=O)N(Cc3ccc(Br)cc3)C2=O)o1 | 1.44%
19 | O=c1c(-c2ccc(O)cc2)coc2c(C3O[C@H](CO)[C@@H](O)[C@H](O)[C@H]3O)c(O)ccc12 (stereo partly shown) | 18.3%
20 | Cc1cc(=O)oc(C)c1C(=O)Nc1ccc2nsnc2c1 | 14.5%
21 | CCOC(=O)C(C)Sc1ccc2nnc(CCNS(=O)(=O)c3ccc(C)cc3)n2n1 (stereo not shown) | 6.57%
22 | COc1ccc(Cn2c(/C=C/c3ccccc3)nc3ccccc32)cc1 | 4.99%

Row | SMILES | hERG current change (%, negative = inhibition) at 1uM
23 | CCCCc1c(O)c2ccccc2[nH]c1=O | 10%
24 | COc1ccc(/C=N/NC(=O)c2cc(C3CC3)[nH]n2)cc1OC | 5.75%
25 | Cc1onc(-c2ccccc2)c1C(=O)N1CCN(c2ccccn2)CC1 | 11.2%
26 | CCCCc1cc(=O)oc2cc(C)cc(OC(C)C(=O)O)c12 (stereo not shown) | 15.5%
27 | CCC(C)n1[nH]c(=O)cc1N (stereo not shown) | 14.7%
28 | CCOC(=O)c1ccc(NC(=O)Nc2ccc(S(N)(=O)=O)cc2)cc1 | 6.06%
29 | Cn1c(=O)[nH]c(=O)c2c1nc(N/N=C/C(Br)=C/c1ccccc1)n2CCO | 14.2%
30 | CCc1ccc(CC)c(S(=O)(=O)Nc2ccc(C(=O)O)c(O)c2)c1 | 14.8%
31 | Cc1cc(C(=O)NNC(=O)CCN2CCN(c3ccccc3)CC2)c2ccccc2n1 | 0.983%
32 | C#CCOCCOCCOCCNc1nc(N2CCN(C(=O)[C@H]([C@@H](C)CC)n3cc([C@@H](N)Cc4ccc(O)cc4)nn3)CC2)nc(N2CCN(C(=O)[C@H](Cc3ccc(O)cc3)n3cc([C@@H](N)C(C)CC)nn3)CC2)n1.Cl (stereo partly shown) | -0.72%
33 | COc1ccc(COC(=O)CN2C(=O)NC3(CCCC3)C2=O)cc1F | 7.47%
34 | O=C(Nc1nnc(-c2ccco2)s1)C1CC1 | -4.4%
35 | CC1(C)CC(=O)C(C=NCC2CCN(C(=S)Nc3ccccc3)CC2)=C(O)C1 | 11.2%
36 | COc1cc2c(cc1OC)C(C(=O)NCc1cccnc1)C(c1cccnc1)N(C)C2=O (stereo not shown) | 9.12%
37 | COCCNC(=O)C(=O)NCC1OCCN1S(=O)(=O)c1ccc(C)cc1 (stereo not shown) | 13.2%
38 | O=C(COC(=O)CCNS(=O)(=O)c1ccccc1)NC(=O)Cc1ccccc1 | 5.79%
39 | CCc1ccccc1NNC(=O)CCc1ccccc1 | 13.2%
40 | c1ccc(-c2nccnc2-c2ccccc2)cc1 | 9.96%
41 | Nc1nc(C2CC2)c(Sc2sc(N)nc2C2CC2)s1 | 7.71%
42 | COc1cc(-c2noc(C)c2C#CCO)cc(OC)c1OC | 11.4%
43 | CCOC(=O)OC(C)OC1=C(C(=O)Nc2ccccn2)N(C)S(=O)(=O)c2ccccc21 (stereo not shown) | 16.6%
